Test results from the supplement of paper PMC8728848.
This is one part of the list.

Key:
Assay in all cases: glycan array binding signal (z-score within array); higher = stronger binding
Conditions in all cases: glycan notation: IUPAC condensed, linker removed
Gal(b1-2)Gal = molecular target: Gal(b1-2)Gal
How it was run: (§1)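 The binding signal is a Z-score computed within each array and averaged over linkers. Arrays of the same protein sequence at different concentrations or buffers were also averaged together. Data originate from 3228 arrays in the Consortium for Functional Glycomics database, kept only where the protein sequence was available.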

Gal(b1-3)Gal = molecular target: Gal(b1-3)Gal
How it was run: as §1

Gal(b1-3)Gal(b1-4)GlcNAc = molecular target: Gal(b1-3)Gal(b1-4)GlcNAc
How it was run: as §1

Gal(b1-3)GalNAc = molecular target: Gal(b1-3)GalNAc
How it was run: as §1

[1] = molecular target: Gal(b1-3)GalNAc(a1-3)[Fuc(a1-2)]Gal(b1-4)Glc
How it was run: as §1

[2] = molecular target: Gal(b1-3)GalNAc(a1-3)[Fuc(a1-2)]Gal(b1-4)GlcNAc
How it was run: as §1

Gal(b1-3)GalNAc(b1-3)Gal = molecular target: Gal(b1-3)GalNAc(b1-3)Gal
How it was run: as §1

[3] = molecular target: Gal(b1-3)GalNAc(b1-3)Gal(a1-4)Gal(b1-4)Glc
How it was run: as §1

[4] = molecular target: Gal(b1-3)GalNAc(b1-4)Gal(b1-4)Glc
How it was run: as §1

[5] = molecular target: Gal(b1-3)GalNAc(b1-4)[Neu5Ac(a2-3)]Gal(b1-4)Glc
How it was run: as §1

Gal(b1-3)GlcNAc = molecular target: Gal(b1-3)GlcNAc
How it was run: as §1

[6] = molecular target: Gal(b1-3)GlcNAc(a1-3)Gal(b1-4)GlcNAc
How it was run: as §1

[7] = molecular target: Gal(b1-3)GlcNAc(a1-6)Gal(b1-4)GlcNAc
How it was run: as §1

Gal(b1-3)GlcNAc(b1-2)Man = molecular target: Gal(b1-3)GlcNAc(b1-2)Man
How it was run: as §1

[8] = molecular target: Gal(b1-3)GlcNAc(b1-2)Man(a1-3)[Gal(b1-3)GlcNAc(b1-2)Man(a1-6)]Man(b1-4)GlcNAc(b1-4)GlcNAc
How it was run: as §1

[9] = molecular target: Gal(b1-3)GlcNAc(b1-2)Man(a1-3)[Gal(b1-3)GlcNAc(b1-2)Man(a1-6)]Man(b1-4)GlcNAc(b1-4)[Fuc(a1-6)]GlcNAc
How it was run: as §1

[10] = molecular target: Gal(b1-3)GlcNAc(b1-2)Man(a1-3)[GlcNAc(b1-4)][Gal(b1-3)GlcNAc(b1-2)Man(a1-6)]Man(b1-4)GlcNAc(b1-4)GlcNAc
How it was run: as §1

[11] = molecular target: Gal(b1-3)GlcNAc(b1-2)[Gal(b1-3)GlcNAc(b1-6)]Man(a1-6)[Gal(b1-3)GlcNAc(b1-2)Man(a1-3)]Man(b1-4)GlcNAc(b1-4)GlcNAc
How it was run: as §1

[12] = molecular target: Gal(b1-3)GlcNAc(b1-3)Gal(b1-3)GlcNAc
How it was run: as §1

[13] = molecular target: Gal(b1-3)GlcNAc(b1-3)Gal(b1-4)Glc
How it was run: as §1

[14] = molecular target: Gal(b1-3)GlcNAc(b1-3)Gal(b1-4)GlcNAc
How it was run: as §1

[15] = molecular target: Gal(b1-3)GlcNAc(b1-3)Gal(b1-4)GlcNAc(b1-2)Man(a1-3)[Gal(b1-3)GlcNAc(b1-3)Gal(b1-4)GlcNAc(b1-2)Man(a1-6)]Man(b1-4)GlcNAc(b1-4)GlcNAc
How it was run: as §1

[16] = molecular target: Gal(b1-3)GlcNAc(b1-3)Gal(b1-4)GlcNAc(b1-2)[Gal(b1-3)GlcNAc(b1-3)Gal(b1-4)GlcNAc(b1-6)]Man(a1-6)[Gal(b1-3)GlcNAc(b1-3)Gal(b1-4)GlcNAc(b1-2)Man(a1-3)]Man(b1-4)GlcNAc(b1-4)[Fuc(a1-6)]GlcNAc
How it was run: as §1

[17] = molecular target: Gal(b1-3)GlcNAc(b1-3)Gal(b1-4)GlcNAc(b1-3)Gal(b1-4)GlcNAc(b1-2)[Gal(b1-3)GlcNAc(b1-3)Gal(b1-4)GlcNAc(b1-3)Gal(b1-4)GlcNAc(b1-6)]Man(a1-6)[Gal(b1-3)GlcNAc(b1-3)Gal(b1-4)GlcNAc(b1-3)Gal(b1-4)GlcNAc(b1-2)Man(a1-3)]Man(b1-4)GlcNAc(b1-4)[Fuc(a1-6)]GlcNAc
How it was run: as §1

[18] = molecular target: Gal(b1-3)GlcNAc(b1-3)Gal(b1-4)GlcNAc(b1-6)[Gal(b1-3)GlcNAc(b1-3)]Gal(b1-4)Glc
How it was run: as §1

[19] = molecular target: Gal(b1-3)GlcNAc(b1-3)Gal(b1-4)[Fuc(a1-3)]GlcNAc
How it was run: as §1

[20] = molecular target: Gal(b1-3)GlcNAc(b1-3)Gal(b1-4)[Fuc(a1-3)]GlcNAc(b1-6)[Gal(b1-3)GlcNAc(b1-3)]Gal(b1-4)Glc
How it was run: as §1

[21] = molecular target: Gal(b1-3)GlcNAc(b1-3)GalNAc
How it was run: as §1

[22] = molecular target: Gal(b1-3)GlcNAc(b1-6)Gal(b1-4)GlcNAc
How it was run: as §1

[23] = molecular target: Gal(b1-3)GlcNAc(b1-6)GalNAc
How it was run: as §1

[24] = molecular target: Gal(b1-3)GlcNAc(b1-6)[Gal(b1-3)]GalNAc
How it was run: as §1

Gal(b1-3)GlcNAc6S = molecular target: Gal(b1-3)GlcNAc6S
How it was run: as §1

[25] = molecular target: Gal(b1-3)[Fuc(a1-4)]GlcNAc
How it was run: as §1

[26] = molecular target: Gal(b1-3)[Fuc(a1-4)]GlcNAc(b1-2)Man
How it was run: as §1

[27] = molecular target: Gal(b1-3)[Fuc(a1-4)]GlcNAc(b1-2)Man(a1-3)[Gal(b1-3)[Fuc(a1-4)]GlcNAc(b1-2)Man(a1-6)]Man(b1-4)GlcNAc(b1-4)[Fuc(a1-6)]GlcNAc
How it was run: as §1

[28] = molecular target: Gal(b1-3)[Fuc(a1-4)]GlcNAc(b1-3)Gal(b1-3)[Fuc(a1-4)]GlcNAc
How it was run: as §1

[29] = molecular target: Gal(b1-3)[Fuc(a1-4)]GlcNAc(b1-3)Gal(b1-4)[Fuc(a1-3)]GlcNAc
How it was run: as §1

[30] = molecular target: Gal(b1-3)[Fuc(a1-4)]GlcNAc(b1-6)GalNAc
How it was run: as §1

[31] = molecular target: Gal(b1-3)[GlcNAc(b1-6)]GalNAc
How it was run: as §1

[32] = molecular target: Gal(b1-3)[Neu5Ac(a2-6)]GalNAc
How it was run: as §1

[33] = molecular target: Gal(b1-3)[Neu5Ac(a2-6)]GlcNAc(b1-4)Gal(b1-4)Glc
How it was run: as §1

[34] = molecular target: Gal(b1-3)[Neu5Ac(b2-6)]GalNAc
How it was run: as §1

Gal(b1-4)Gal = molecular target: Gal(b1-4)Gal
How it was run: as §1

[35] = molecular target: Gal(b1-4)GalNAc(a1-3)[Fuc(a1-2)]Gal(b1-4)GlcNAc
How it was run: as §1

[36] = molecular target: Gal(b1-4)GalNAc(b1-3)[Fuc(a1-2)]Gal(b1-4)GlcNAc
How it was run: as §1

B1: DrGRIFIN (Danio rerio), Q6DGJ1 (protein)
chain: MTLRFEASCPDGLCPGWSVILKGETPPEASKFEINFLCDRDDRVAFHFNPRFTESDIICNSYMANRWGQEERCNHFPLGVEEPFQIEIYSDNDHFHVYIDKAKVMQYKHRVEDLKTITKLQVVNDVKISSLEITKKLFY
What does the source list for B1?
glycan array binding signal (z-score) (Gal(b1-2)Gal): -0.134; glycan array binding signal (z-score) (Gal(b1-3)Gal): -0.207; glycan array binding signal (z-score) (Gal(b1-3)Gal(b1-4)GlcNAc): -0.172; glycan array binding signal (z-score) (Gal(b1-3)GalNAc): -0.17; glycan array binding signal (z-score) [1]: -0.156; glycan array binding signal (z-score) [2]: 0.014; glycan array binding signal (z-score) (Gal(b1-3)GalNAc(b1-3)Gal): -0.166; glycan array binding signal (z-score) [3]: -0.142; glycan array binding signal (z-score) [4]: -0.159; glycan array binding signal (z-score) [5]: -0.199; glycan array binding signal (z-score) (Gal(b1-3)GlcNAc): -0.131; glycan array binding signal (z-score) [6]: -0.193; glycan array binding signal (z-score) [7]: -0.138; glycan array binding signal (z-score) (Gal(b1-3)GlcNAc(b1-2)Man): -0.2; glycan array binding signal (z-score) [8]: -0.16; glycan array binding signal (z-score) [9]: -0.135; glycan array binding signal (z-score) [10]: -0.155; glycan array binding signal (z-score) [11]: -0.168; glycan array binding signal (z-score) [12]: -0.074; glycan array binding signal (z-score) [13]: 0.225; glycan array binding signal (z-score) [14]: -0.092; glycan array binding signal (z-score) [15]: -0.088; glycan array binding signal (z-score) [16]: -0.124; glycan array binding signal (z-score) [17]: -0.107; glycan array binding signal (z-score) [18]: -0.101; glycan array binding signal (z-score) [19]: -0.203; glycan array binding signal (z-score) [20]: -0.128; glycan array binding signal (z-score) [21]: -0.118; glycan array binding signal (z-score) [22]: -0.116; glycan array binding signal (z-score) [23]: -0.246; glycan array binding signal (z-score) [24]: -0.189; glycan array binding signal (z-score) (Gal(b1-3)GlcNAc6S): -0.164; glycan array binding signal (z-score) [25]: -0.187; glycan array binding signal (z-score) [26]: -0.194; glycan array binding signal (z-score) [27]: -0.1; glycan array binding signal (z-score) [28]: -0.17; glycan array binding signal (z-score) [29]: -0.175; glycan array binding signal (z-score) [30]: -0.191; glycan array binding signal (z-score) [31]: -0.119; glycan array binding signal (z-score) [32]: -0.177; glycan array binding signal (z-score) [33]: 0.075; glycan array binding signal (z-score) [34]: -0.18; glycan array binding signal (z-score) (Gal(b1-4)Gal): -0.207; glycan array binding signal (z-score) [35]: -0.219; glycan array binding signal (z-score) [36]: -0.175
